Results as given in PubChem BioAssay AID2147 (National Center for Advancing Translational Sciences (NCATS), 2009).
Out of some 230,000 compounds screened, about 3,600 (1.6%) were called active. The inconclusive results got no clear call from the source; some entries with a clear call stand among them for comparison. Calls come from the whole dose curve; as a rule, active = well fitted inhibition curve with a large enough effect (not every such curve was filed as active); inconclusive = small, poorly fitted or top-dose-only effect, or another doubt; inactive = no such curve, though single readings can be large or run the other way. Potencies beside an inconclusive call are fits to weak or partial responses and may not hold up. A structure can be active in one record and inactive in another.

biological target: Lysine-specific demethylase 4E (Homo sapiens) (UniProt B2RXH2); assay: qHTS Assay for Inhibitors of Human Jumonji Domain Containing 2E (JMJD2E); details: JMJD2E catalytic domain, FDH-coupled NADH fluorescence (FDH is formaldehyde dehydrogenase); series mostly up to 57.1 µM; activity change, negative = inhibition: at the top concentration
Note: nearly all actives have a fitted effect of over 50% in size.
Potency is the fitted concentration of half-maximal effect; tags give direction and shape of the fitted curve.
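Throughout, for activity change, negative = inhibition: 0% = wells with enzyme and -100% = buffer wells without enzyme.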

Sequence of UniProt B2RXH2 (B2RXH2 whole entry, looked up, the tested form may be a part): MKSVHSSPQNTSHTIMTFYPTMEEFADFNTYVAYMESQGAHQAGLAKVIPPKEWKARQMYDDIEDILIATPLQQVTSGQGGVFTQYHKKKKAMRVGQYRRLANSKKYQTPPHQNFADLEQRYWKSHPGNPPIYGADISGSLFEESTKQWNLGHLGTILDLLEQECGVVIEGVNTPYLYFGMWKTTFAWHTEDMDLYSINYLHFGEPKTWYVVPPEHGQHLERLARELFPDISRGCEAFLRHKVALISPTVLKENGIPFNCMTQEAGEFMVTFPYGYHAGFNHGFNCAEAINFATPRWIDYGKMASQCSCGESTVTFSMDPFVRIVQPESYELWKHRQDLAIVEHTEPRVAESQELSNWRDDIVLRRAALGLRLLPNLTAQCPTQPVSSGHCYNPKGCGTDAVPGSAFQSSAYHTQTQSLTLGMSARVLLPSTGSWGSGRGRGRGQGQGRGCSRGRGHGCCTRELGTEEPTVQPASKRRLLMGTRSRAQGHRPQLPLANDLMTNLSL

SMILES | Potency | activity change, negative = inhibition
COc1ccc2[nH]c(=O)c(CN(Cc3cccs3)C(=S)Nc3ccccc3)cc2c1 | inconclusive: 6.31 µM [inhibitor, single point] | –
CSc1nc2ccc3nc(NC(=O)c4ccccc4)sc3c2s1 | inconclusive: 22.4 µM [inhibitor, partial curve] | –
Cc1ccc(C(=O)N/C(=C\c2ccc(-c3cc(Cl)ccc3Cl)o2)C(=O)NCc2cccnc2)cc1 | inconclusive: 31.6 µM [inhibitor, partial curve] | –
COc1ccc(OCC(O)CN2CCCCCC2)cc1 (stereo not given) | inconclusive: 28.2 µM [inhibitor, single point] | –
CC(C)Oc1ccc(/C=N/NC(=O)c2ccc(N(Cc3ccccc3)S(C)(=O)=O)cc2)cc1 | inconclusive: 12.6 µM [inhibitor, partial curve] | –
Cc1cc(C)c2c(NC(=O)C3CC3)nn(C)c2n1 | inconclusive: 31.6 µM [inhibitor, partial curve] | –
CC(=O)c1cccc(NC(=S)NC(=O)c2ccccc2)c1 | – | inactive: -9.23%
CCc1ccc(N2Cc3ccccc3C2)cc1 | inconclusive: 39.8 µM [inhibitor, single point] | –
COc1ccc(-c2nc(CCl)cs2)cc1 | inconclusive: 25.1 µM [inhibitor, partial curve] | –
Cc1ccc(-c2ccc(CCC(=O)O)n2-c2ccc(O)cc2)cc1 | inconclusive: 20 µM [inhibitor, partial curve] | –
CCOc1ccc(-c2nc(S(=O)(=O)c3ccccc3)c(NCc3cccnc3)o2)cc1 | inconclusive: 39.8 µM [inhibitor, single point] | –
FC(F)(F)c1cccc(NC(=S)Nc2cccc(NC(=S)Nc3cccc(C(F)(F)F)c3)n2)c1 | inconclusive: 35.5 µM [inhibitor, single point] | –
Cc1cccc(N/N=C(\C=N\N)C(=O)c2ccc(Br)cc2)c1 | – | inactive: 3.32%
C/C(=N\OC(=O)c1ccccc1)c1c(C)nc2cc(C)ccn12 | inconclusive: 28.2 µM [inhibitor, partial curve] | –
CC(=O)c1c(C)n([O-])c2ccccc2[n+]1=O | inconclusive: 28.2 µM [inhibitor, partial curve] | –
O=C(NCCN1CCN(c2cccc(Cl)c2)CC1)c1ccc(CSc2nc3ccncc3[nH]2)cc1 | – | inactive: 9.13%
O=C(c1ccc(=O)n(Cc2ccc(Cl)c(Cl)c2)c1)N1CCOCC1 | – | inactive: 0.852%
CCOC(=O)c1ccc(S(=O)(=O)Nc2cc(C(=O)O)ccc2Cl)cc1 | inconclusive: 39.8 µM [inhibitor, single point] | –
Cc1nc(N2CCOCC2)nc2c1CCCC2 | inconclusive: 35.5 µM [inhibitor, single point] | –
Cn1cccc1Cc1nnc(SCC(=O)NC2CCCCC2)n1-c1ccc(F)cc1 | inconclusive: 35.5 µM [inhibitor, single point] | –
CC1CN(C(=O)c2ccc(COc3ccc4ccccc4c3)o2)CC(C)O1 (stereo not given) | – | inactive: -8.01%
Cc1ccc(N=Nc2c(O)[nH]c3ccc(F)cc23)cc1 | – | inactive: -21.8%
Nc1nc2c(s1)CCc1c-2cnn1-c1ccccc1 | inconclusive: 35.5 µM [inhibitor, single point] | –

SMILES | Potency | activity change, negative = inhibition
CN(C)S(=O)(=O)c1ccc(NC(=O)c2ccc(Br)o2)cc1 | – | inactive: 1.77%
CC(C)CC(NC(=O)c1cccc(Cl)c1)C(=O)O (stereo not given) | inconclusive: 39.8 µM [inhibitor, partial curve, poor fit] | –
O=C(NCCN1CCCC1)c1ccc(Cn2c(=S)[nH]c3cc4c(cc3c2=O)OCO4)cc1 | – | inactive: -3.86%
CCCCNC(=S)NNC(=O)c1cc(C)on1 | inconclusive: 39.8 µM [inhibitor, single point] | –
CCc1c(C(C)O)oc2ccc3c(C)cc(=O)oc3c12 (stereo not given) | inconclusive: 28.2 µM [inhibitor, partial curve] | –
O=C(NCc1ccccc1)c1cccc(COc2ccccc2Cl)c1 | – | inactive: 1.58%
O=C(Nc1ccc2nsnc2c1)c1ccc2c(c1)OCO2 | inconclusive: 39.8 µM [inhibitor, single point] | –
CCOC(=O)c1nnn(CC(=O)N2N=C(c3cccc4ccccc34)CC2c2ccccc2)c1C(=O)OCC (stereo not given) | inconclusive: 28.2 µM [inhibitor, partial curve] | –
COc1ccc(-c2cc(C(F)(F)F)nc(N3CCN(C)CC3)n2)cc1 | inconclusive: 39.8 µM [inhibitor, single point] | –
CCc1nc(SCc2cccnc2)[nH]c(=O)c1C | – | inactive: -5.92%
O=C(c1ccc2nc(N3CCCCC3)sc2c1)N1CCN(Cc2ccc3c(c2)OCO3)CC1 | inconclusive: 35.5 µM [inhibitor, single point] | –
CN(CC(=O)Nn1cnnc1)S(=O)(=O)c1ccc(Br)cc1 | – | inactive: 2.95%
CC(=Nc1ccccc1)C1=C(O)CSC1=O | inconclusive: 39.8 µM [inhibitor, single point] | –
C=CCOc1ccccc1CN1CCSCC1 | inconclusive: 35.5 µM [inhibitor, single point] | –
CC(=O)C1=C(O)C(=O)N(c2ccc(Br)cn2)C1c1ccccc1F (stereo not given) | inconclusive: 31.6 µM [inhibitor, single point] | –
CCc1nnc(NC2=NCCC2)s1 | inconclusive: 39.8 µM [inhibitor, single point] | –
Fc1ccccc1N1CC(c2ccccc2)C(c2cccs2)=N1 (stereo not given) | inconclusive: 28.2 µM [inhibitor, partial curve] | –
c1ccc(Nc2cccc(Nc3ccccc3)n2)cc1 | inconclusive: 35.5 µM [inhibitor, single point] | –
CC(C)CN1C=C2C(=O)C(C)(OC(=O)C3CCCC3)C(=O)C=C2C=C1c1ccsc1 (stereo not given) | active: 31.6 µM | –
C#Cc1ccc([C@@H]2C=C(C(=O)NCc3ccccc3)O[C@H](OCc3ccc(CO)cc3)C2)cc1 | inconclusive: 39.8 µM [inhibitor, single point] | –
CCOc1ccc2c(C)c(C)c(=O)oc2c1OCC | inconclusive: 28.2 µM [inhibitor, partial curve] | –
CC(C)NC(=O)c1nn2c(C(F)(F)F)cc(-c3ccco3)nc2c1Cl | inconclusive: 25.1 µM [inhibitor, partial curve] | –
